Source: paper PMC4336329 (PLoS ONE, 2015)
In all, about 310,000 compounds went through this assay and about 2,200 (0.71%) showed an effect of 50% or more. The effect is printed as a negative number. This is one part of the list.

biological target: human ether-à-go-go-related gene (hERG) potassium channel (human, UniProt Q12809); experiment: primary screen, population patch clamp on CHO cells stably expressing hERG
Sequence (Q12809 whole entry, looked up): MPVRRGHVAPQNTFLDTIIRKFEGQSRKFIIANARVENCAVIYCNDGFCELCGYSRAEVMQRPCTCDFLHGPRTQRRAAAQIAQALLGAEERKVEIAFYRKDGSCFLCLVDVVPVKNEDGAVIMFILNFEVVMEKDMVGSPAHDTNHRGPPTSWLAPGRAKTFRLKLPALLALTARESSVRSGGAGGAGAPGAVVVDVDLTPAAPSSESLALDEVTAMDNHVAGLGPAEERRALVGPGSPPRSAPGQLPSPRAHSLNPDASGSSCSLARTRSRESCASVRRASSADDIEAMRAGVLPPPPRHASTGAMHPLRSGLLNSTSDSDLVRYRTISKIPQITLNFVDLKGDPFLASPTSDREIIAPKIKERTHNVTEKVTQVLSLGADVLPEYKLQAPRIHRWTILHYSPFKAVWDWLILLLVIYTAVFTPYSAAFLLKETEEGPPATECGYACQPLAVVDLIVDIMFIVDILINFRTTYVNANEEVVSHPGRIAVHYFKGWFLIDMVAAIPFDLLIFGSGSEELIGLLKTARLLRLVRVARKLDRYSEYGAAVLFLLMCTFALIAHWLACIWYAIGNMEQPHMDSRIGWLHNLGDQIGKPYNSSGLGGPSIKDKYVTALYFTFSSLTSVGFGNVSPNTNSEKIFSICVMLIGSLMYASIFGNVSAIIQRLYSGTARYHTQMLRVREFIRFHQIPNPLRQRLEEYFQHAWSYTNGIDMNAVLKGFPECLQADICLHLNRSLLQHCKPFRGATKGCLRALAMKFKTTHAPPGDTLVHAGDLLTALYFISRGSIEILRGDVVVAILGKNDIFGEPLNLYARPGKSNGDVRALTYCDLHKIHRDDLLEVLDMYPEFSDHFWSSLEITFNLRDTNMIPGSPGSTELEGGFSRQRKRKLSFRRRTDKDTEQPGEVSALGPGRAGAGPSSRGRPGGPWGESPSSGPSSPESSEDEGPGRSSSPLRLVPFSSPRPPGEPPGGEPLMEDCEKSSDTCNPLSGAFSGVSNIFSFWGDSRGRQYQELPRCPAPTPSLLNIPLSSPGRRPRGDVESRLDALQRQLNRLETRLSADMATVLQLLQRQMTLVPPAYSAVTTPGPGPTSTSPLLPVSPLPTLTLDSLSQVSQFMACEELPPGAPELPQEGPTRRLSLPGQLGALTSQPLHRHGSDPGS

Going from `COC(=O)[C@@H]1C[C@H]1[C@@H](NC(=O)c1ccccc1)c1ccccc1` to `Cc1cccc(C(=O)Nc2ccccc2C(=O)NCc2ccco2)c1`, the “hERG current change (%, negative = inhibition) at 1uM” value rises from 4.69% to 8.71%.

Going from `CC1CCc2c(sc(NC(=O)c3ccco3)c2C(=O)O)C1` (centres unmarked) to `Cc1cnc(C(=O)OCC(=O)Nc2sc3c(c2C#N)CCC3)cn1`, the “hERG current change (%, negative = inhibition) at 1uM” value falls from 14.4% to 0.245%.

Going from `COc1ccc(-c2noc(CCCC(=O)NCC3CCCO3)n2)cc1` (centres unmarked) to `COC(=O)c1cc(S(=O)(=O)NCC2CCN(CCc3ccc(OC)cc3)CC2)c[nH]1`, the “hERG current change (%, negative = inhibition) at 1uM” value falls from 12.3% to -23.4%.

First: O=C(c1c(Cl)cccc1Cl)N1CCN(c2ncccn2)CC1
Second: O=C(c1ccc(S(=O)(=O)Cc2ccccc2Cl)c([N+](=O)[O-])c1)N1CCN(c2ccccn2)CC1
The “hERG current change (%, negative = inhibition) at 1uM” value of the first is higher: 9.39% for the first, 5.86% for the second.

Compared with `N=C1C(c2nc3ccccc3c(=O)[nH]2)=C(O)CN1CCc1ccccc1`, `Cn1cc(/C=N/Nc2ccccc2)c2ccccc21` is higher in “hERG current change (%, negative = inhibition) at 1uM” value: 12.5% for the first, 18.3% for the second.

Going from `CN1CCN(C(=O)C2=C[C@@H](c3coc4ccccc4c3=O)C[C@@H](OCc3ccc(CO)cc3)O2)CC1` to `COc1ccc(CC(=O)Nc2ccccc2C(=O)N2CCOCC2)cc1OC`, the “hERG current change (%, negative = inhibition) at 1uM” value rises from 6.95% to 11.9%.

Going from `CN(C)S(=O)(=O)c1ccc(C(=O)/C=C/c2cccnc2)cc1` to `COc1cccc(N(CC(=O)O)S(=O)(=O)c2ccccc2)c1`, the “hERG current change (%, negative = inhibition) at 1uM” value falls from 11% to 6.43%.

First: CC(C)(C)OC(=O)[C@H](Cc1ccccc1)NC(=O)c1nc[nH]c1C(=O)N1CCN(C(=O)OC(C)(C)C)CC1
Second: CC12CCC(C(=O)N3CCN(Cc4ccccc4)CC3)(OC1=O)C2(C)C (centres unmarked)
The “hERG current change (%, negative = inhibition) at 1uM” value of the first is lower: -12.8% for the first, 14.9% for the second.

Going from `N#CCSc1nnc(N)s1` to `CC1CCCCN1c1nnc(N)s1` (centres unmarked), the “hERG current change (%, negative = inhibition) at 1uM” value rises from 5.3% to 7.66%.

Compared with `CCOC(=O)c1cnc(SC)nc1Oc1cccc(NS(=O)(=O)c2ccc(C)cc2)c1`, `Cc1nc2ccc(NS(=O)(=O)c3ccc(F)c(C)c3)cc2[nH]1` is higher in “hERG current change (%, negative = inhibition) at 1uM” value: 1.65% for the first, 6.71% for the second.

First: CN(C)c1ccc(S(=O)(=O)N2CCCCC2)cc1NC(=O)COc1ccccc1F
Second: COc1ccc(NC(=O)c2cc(S(=O)(=O)N3CCCC3)ccc2OC)cc1
The “hERG current change (%, negative = inhibition) at 1uM” value of the first is lower: -2.54% for the first, 9.6% for the second.

Going from `O=C(O)c1cccc(CSc2ncn[nH]2)c1` to `Cc1nc(=O)c(-c2ccccc2)c(C)n1-c1cccc(C(=O)O)c1`, the “hERG current change (%, negative = inhibition) at 1uM” value rises from 3.9% to 13%.

First: O=C(Cc1cccs1)Nc1nnc(-c2ccc(F)cc2)s1
Second: O=C(CSc1ccc(-c2ccc(F)cc2)nn1)NCc1ccco1
The “hERG current change (%, negative = inhibition) at 1uM” value of the first is lower: 2.8% for the first, 13.2% for the second.

Going from `O=C(O)c1c(Cl)c(Cl)c(Cl)c(Cl)c1C(=O)N1CCOCC1` to `Nc1c(N2CCOCC2)cc(Cl)c2nonc12`, the “hERG current change (%, negative = inhibition) at 1uM” value falls from 13.8% to -29.9%.

Going from `O=C1CSC(=Nc2ccc(Cl)cc2)N1Cc1cccnc1` to `O=C(CC(=O)NCc1ccc(Cl)cc1)NCc1ccccc1`, the “hERG current change (%, negative = inhibition) at 1uM” value falls from 6.05% to 5.17%.

Compared with `O=C(N/N=C/c1c[nH]c2ccccc12)C1COc2ccccc2O1` (centres unmarked), `CCN1C(=O)c2cccc3c(NC(=O)c4ccccc4)ccc1c23` is higher in “hERG current change (%, negative = inhibition) at 1uM” value: 6.51% for the first, 10% for the second.

Going from `COC(=O)C(CC(C)C)NC(=O)c1cccs1` (centres unmarked) to `Cc1c(C(=O)NC(=S)Nc2ccc(NC(=O)c3cccs3)cc2)cccc1[N+](=O)[O-]`, the “hERG current change (%, negative = inhibition) at 1uM” value falls from 13.5% to 5.09%.

Going from `CC(=O)C(Cc1cccc(F)c1)(Cc1cccc(F)c1)C(C)=O` to `Cc1ccc(C(=O)OCC(=O)NC(=O)NCc2ccccc2)cc1C`, the “hERG current change (%, negative = inhibition) at 1uM” value rises from 7.8% to 10.1%.

Going from `O=C(CN1C(=O)NC(Cc2c[nH]c3ccccc23)C1=O)NCC(F)(F)F` (centres unmarked) to `O=C(NNC(=O)c1ccc[nH]1)Nc1cccc(C(F)(F)F)c1`, the “hERG current change (%, negative = inhibition) at 1uM” value rises from 15.9% to 16.9%.

Compared with `O=c1[nH]c(=S)ccn1C1OC(CO)C(O)C1O` (centres unmarked), `CC(C)c1ccc(N2C(=O)C3C4C=CC(CC4)C3C2=O)cc1` (centres unmarked) is higher in “hERG current change (%, negative = inhibition) at 1uM” value: 15.4% for the first, 19.1% for the second.

First: O/N=C1\CCCCc2ccccc21
Second: O=C(O)c1ccc2c(c1)S(=O)(=O)c1ccccc1C2=O
The “hERG current change (%, negative = inhibition) at 1uM” value of the first is higher: 14.4% for the first, 11.3% for the second.

First: CNS(=O)(=O)c1ccc(NC(=O)c2ccc(Cl)cc2Cl)cc1
Second: COc1ccccc1NC(C)=[N+](C)CCNS(=O)(=O)c1ccc(Cl)cc1.[I-]
The “hERG current change (%, negative = inhibition) at 1uM” value of the first is higher: 12.5% for the first, -28.4% for the second.

Going from `Cc1cc(C)n(Cc2ccc(Cl)nc2)n1` to `CC(C)c1nc(NCCO)c2nnn(Cc3ccccc3)c2n1`, the “hERG current change (%, negative = inhibition) at 1uM” value rises from 11.9% to 12.6%.

First: N#CCNC1CC(=O)N(c2ccc(F)cc2)C1=O (centres unmarked)
Second: CC(=O)c1nc(N2C(=O)CC(Cc3ccc(C)cc3)C2=O)sc1C (centres unmarked)
The “hERG current change (%, negative = inhibition) at 1uM” value of the first is lower: 7.69% for the first, 8.47% for the second.

First: CCO[C@H]1OC(C(=O)NCc2ccccc2)=C[C@@H](c2ccc3c(c2)OCO3)[C@@H]1CCCO
Second: COc1cccc(-n2nnnc2SCC(=O)NCc2ccc3c(c2)OCO3)c1
The “hERG current change (%, negative = inhibition) at 1uM” value of the first is lower: -1.53% for the first, 6.2% for the second.

First: CCc1ccc(NC(=O)CCS(=O)(=O)c2ccc3c(c2)CCN3C(C)=O)cc1
Second: COc1ccc(NC(=O)CN(C)C(=O)c2cc(S(=O)(=O)N(C)C)ccc2N2CCCC2)cc1
The “hERG current change (%, negative = inhibition) at 1uM” value of the first is higher: 17.6% for the first, -4.85% for the second.

First: NC(=O)c1ccc(NC(=O)c2ccc3c(c2)CCN3S(=O)(=O)c2ccccc2)cc1
Second: O=C(Nn1cnc2ccccc2c1=O)c1ccc(Br)cc1
The “hERG current change (%, negative = inhibition) at 1uM” value of the first is higher: 12.1% for the first, 10.5% for the second.

Going from `Cc1nc(SCC(=O)CC(=O)OC(C)C)c(C#N)c(C)c1C` to `CNC(=O)COC(=O)c1[nH]c(C)c(C(C)=O)c1C`, the “hERG current change (%, negative = inhibition) at 1uM” value rises from -2.17% to 13.1%.

Compared with `Cc1ccc(C(C(=O)NC2CCCC2)N2CCCC(C)C2)cc1` (centres unmarked), `Cn1c(=O)[nH]c(=O)c2c1nc(N1CCCCC1)n2C/C=N/Nc1ccc(C(=O)O)cc1` is higher in “hERG current change (%, negative = inhibition) at 1uM” value: 10.4% for the first, 13.5% for the second.

First: CCCCNC(=O)c1cnc2n(c1=O)CCS2
Second: CCCCCn1c(N2CCC(C(N)=O)CC2)nc2c1c(=O)[nH]c(=O)n2C
The “hERG current change (%, negative = inhibition) at 1uM” value of the first is lower: 3.48% for the first, 7.56% for the second.

Compared with `Cc1noc(C(=O)Nc2cccc(Cl)c2)c1Cl`, `O=C(Nc1ccc2c(c1)OCCO2)c1cccc(Cl)c1Cl` is lower in “hERG current change (%, negative = inhibition) at 1uM” value: 20% for the first, 8.88% for the second.

First: Cc1cc([N+](=O)[O-])cnc1Sc1nccn1C
Second: CCC(C(=O)OC)(C(=O)OC)c1ccc([N+](=O)[O-])cc1
The “hERG current change (%, negative = inhibition) at 1uM” value of the first is lower: 8.62% for the first, 9.67% for the second.

First: Nc1[nH]n(-c2ccccc2)c(=O)c1N=Nc1ccccc1[N+](=O)[O-]
Second: CCN(C(=O)Cn1nc(C)c([N+](=O)[O-])c1C)c1c(N)n(Cc2ccccc2)c(=O)[nH]c1=O
The “hERG current change (%, negative = inhibition) at 1uM” value of the first is lower: 11.7% for the first, 13.6% for the second.

First: CC(=C/c1ccccc1)/C=N/NC(=O)c1cc(C)oc1C
Second: CCCCC(=O)Nc1cccc(NC(=O)c2ccccc2Br)c1
The “hERG current change (%, negative = inhibition) at 1uM” value of the first is higher: 11.1% for the first, 4.7% for the second.

Going from `Cc1ccc(Cn2c(C(C)Nc3nc(-c4ccc(F)cc4)cs3)nc3cc(C(=O)NCCCO)ccc32)cc1` (centres unmarked) to `COC(=O)C1=CN(Cc2ccc(OC)cc2)C=C(C(=O)OC)C1c1ccc(O)c(OC)c1`, the “hERG current change (%, negative = inhibition) at 1uM” value rises from 9.82% to 16.5%.

Compared with `N/C(Cc1ccc(Cl)cc1Cl)=N\OC(=O)c1ccccc1F`, `COC(=O)C1=C(CSc2nc3ccccc3o2)NC(=O)NC1c1cc(C)ccc1C` (centres unmarked) is higher in “hERG current change (%, negative = inhibition) at 1uM” value: -5.79% for the first, 4.74% for the second.

Compared with `Cc1ccc(NS(=O)(=O)c2cccc3cccnc23)c(Br)c1`, `Cc1ccccc1C(=O)N1N=C(c2cccc(NS(C)(=O)=O)c2)CC1c1cccs1` (centres unmarked) is lower in “hERG current change (%, negative = inhibition) at 1uM” value: 17.5% for the first, 10.4% for the second.

Compared with `O=C(OCC(O)CN1CCCCC1)C12CC3CC(CC(C3)C1)C2` (centres unmarked), `COc1cc(/C=N/NC(=O)CC23CC4CC(CC(C4)C2)C3)cc(Br)c1OCC(=O)N(C)C` is higher in “hERG current change (%, negative = inhibition) at 1uM” value: -0.966% for the first, 11.8% for the second.

First: CC(=O)Nc1ccc(NC(=S)Nc2ccc(Br)cc2)cc1
Second: COc1ccc(NS(=O)(=O)c2cc(NC(=O)[C@@H](NC(N)=O)C(C)C)ccc2C)cc1
The “hERG current change (%, negative = inhibition) at 1uM” value of the first is lower: 6.16% for the first, 15.4% for the second.

Compared with `NC(=S)/N=C/c1c(O)[nH]c(=O)[nH]c1=O`, `O=c1c(C=NCCN2CCNCC2)c(O)n(C2CCCCC2)c(=O)n1C1CCCCC1` is lower in “hERG current change (%, negative = inhibition) at 1uM” value: 8.13% for the first, -13.1% for the second.

Compared with `NS(=O)(=O)c1ccc(NC2=CC(c3ccc(F)cc3)N(c3ccc(S(N)(=O)=O)cc3)C2=O)cc1` (centres unmarked), `COc1ccc([C@H]2CC(=O)C=C(c3ccc(Cl)c(F)c3)C2)cc1` is higher in “hERG current change (%, negative = inhibition) at 1uM” value: 11.9% for the first, 12.7% for the second.

Going from `COc1ccc(C(=O)C(=O)c2ccc(OCCO)cc2)cc1` to `CC(C)(C)c1ccc(C(=O)NC(=S)NNC(=O)COc2ccccc2)cc1`, the “hERG current change (%, negative = inhibition) at 1uM” value rises from 10.8% to 16.8%.

First: O=c1[nH]c(N2CCN(Cc3ccc4c(c3)OCO4)CC2)nc2c1CCCC2
Second: O=C1CN(C(=O)/C=C/c2cc(Br)ccc2F)CCN1
The “hERG current change (%, negative = inhibition) at 1uM” value of the first is higher: 11.9% for the first, 10.7% for the second.

Compared with `CN1CCN(S(=O)(=O)c2ccc(C#N)cc2)C(c2ccccc2)C1.Cl` (centres unmarked), `CCOC(=O)C(NC(=O)CC(C)C)(Nc1cc(C)on1)C(F)(F)F` (centres unmarked) is lower in “hERG current change (%, negative = inhibition) at 1uM” value: 1.09% for the first, -0.624% for the second.

In the case of `CC1CC(C)(C)NCCNC(C)CC(C)(C)NCCN1` (centres unmarked), the “hERG current change (%, negative = inhibition) at 1uM” value was 0.686%.
